The list shows a part of the results.
Tested on: HSkMC (human skeletal muscle cells)
Assay: cytotoxicity call (relative viability < 0.9)
Details: 10 µM

SMILES	cytotoxicity call
C[C@@H]1CN([C@@H](C)CO)C(=O)c2cc(NC(=O)NC3CCCCC3)ccc2O[C@H]1CN(C)Cc1ccc(Cl)c(Cl)c1	inactive
C[C@@H]1CCCCO[C@@H](CN(C)C(=O)c2ccccc2)[C@H](C)CN([C@H](C)CO)C(=O)c2cc(NC(=O)Nc3ccc(F)cc3)ccc2O1	inactive
NC(=O)C1CCOCC1	inactive
C[C@@H]1CN([C@@H](C)CO)C(=O)c2cc(NC(=O)Nc3ccccc3)ccc2O[C@@H](C)CCCCO[C@H]1CN(C)Cc1ccncc1	inactive
C[C@@H]1CN([C@@H](C)CO)S(=O)(=O)c2ccc(C#Cc3ccncc3)cc2O[C@H]1CN(C)C(=O)c1ccncc1	inactive
CC/C=C\C/C=C\C/C=C\C/C=C\C/C=C\C/C=C\CCC(=O)OCC	inactive
C[C@H]1CN([C@@H](C)CO)S(=O)(=O)c2ccc(C#Cc3cccnc3)cc2O[C@H]1CN(C)CC1CCOCC1	inactive
C[N+](C)(C)CCCCCCNC(=O)[C@@H]1C[C@@H]2C(=O)N[C@@H](CCCC[N+](C)(C)C)C(=O)N2[C@@H]1c1ccc(O)cc1	inactive
CC(CCC(=O)NCC(=O)O)C1CCC2C3C(O)CC4CC(O)CCC4(C)C3CC(O)C12C (stereo unspecified)	inactive
C[C@@H]1CN([C@H](C)CO)C(=O)CCCn2nncc2CO[C@@H]1CN(C)C(=O)CCCN(C)C	inactive
C[C@H]1CN([C@@H](C)CO)C(=O)c2cccc(NC(=O)Nc3ccc4c(c3)OCO4)c2O[C@H]1CN(C)Cc1ccc(C(F)(F)F)cc1	inactive
CC(CCC(=O)O)C1CCC2C3C(O)CC4CC(O)CCC4(C)C3CC(O)C12C (stereo unspecified)	inactive
C=CCC[C@@H](Cc1ccc(F)cc1)C(=O)OC[C@@H](Cc1c[nH]c2ccccc12)NC(=O)[C@H](CC=C)CC(=O)N[C@@H](CO)Cc1ccccc1	inactive
COCC(=O)N(C)C[C@@H]1Oc2cc(C#C[C@@H](C)O)ccc2S(=O)(=O)N([C@H](C)CO)C[C@@H]1C	inactive
C[C@@H]1CN([C@H](C)CO)C(=O)c2cccc(NC(=O)C3CC3)c2O[C@@H]1CN(C)S(=O)(=O)c1ccc(F)cc1	inactive
C[C@H]1CCCCO[C@@H](CN(C)C(=O)Nc2ccc3c(c2)OCO3)[C@@H](C)CN([C@@H](C)CO)C(=O)c2cc(NC(=O)C3CCCCC3)ccc2O1	inactive
COc1ccc(S(=O)(=O)N(C)C[C@H]2Oc3c(cccc3N(C)C)C(=O)N([C@H](C)CO)C[C@@H]2C)cc1	inactive
COC(=O)/C=C/C(=O)O	inactive
C[C@@H]1CN([C@@H](C)CO)C(=O)c2cc(NC(=O)CCCCCC(=O)Nc3ccccc3N)ccc2O[C@@H](C)CCCCO[C@@H]1CN(C)CC1CCCCC1	inactive
C[C@H]1CN([C@@H](C)CO)C(=O)c2cccc(NC(=O)CCCCCC(=O)Nc3ccccc3N)c2O[C@H]1CN(C)CC1CCCCC1	inactive
C[C@@H]1CCCCO[C@H](CN(C)CC2CCCCC2)[C@H](C)CN([C@@H](C)CO)C(=O)c2cc(NC(=O)Cc3ccccc3)ccc2O1	inactive
C[C@@H]1CN([C@H](C)CO)C(=O)Cc2cc(NC(=O)Nc3ccc(C(F)(F)F)cc3)ccc2O[C@H]1CN(C)Cc1ccc(C(F)(F)F)cc1	active
Cl.N=C(N)n1cccn1	inactive
O=C(C[C@@H]1C[C@@H]2c3cc(NS(=O)(=O)c4ccc(F)cc4)ccc3O[C@@H]2[C@@H](CO)O1)NCc1ccc(Oc2ccccc2)cc1	inactive
O=C(C[C@@H]1CC[C@H]2[C@@H](COC[C@@H](O)CN2C(=O)Nc2ccc(Cl)cc2)O1)NC1Cc2ccccc2C1	inactive
O=C(C[C@H]1C=C[C@H](NC(=O)c2ccc3c(c2)OCO3)[C@H](CO)O1)NCc1ccc(Oc2ccccc2)cc1	inactive
CO[C@@H](CN(C)S(=O)(=O)c1cn(C)cn1)[C@@H](C)CN(C(=O)Nc1ccc(C(F)(F)F)cc1)[C@@H](C)CO	inactive
Cc1ccc(S(=O)(=O)N(C)C[C@@H]2OCCCC[C@@H](C)Oc3ccc(NC(=O)NC4CCCCC4)cc3C(=O)N([C@@H](C)CO)C[C@H]2C)cc1	inactive
C[C@@H]1CN([C@H](C)CO)C(=O)Cc2cc(NC(=O)Cn3cnnn3)ccc2O[C@H]1CN(C)S(=O)(=O)c1ccc(Cl)cc1	inactive

Tested on: S. aureus RN4220
Assay: growth inhibition call (relative growth <= 0.2)
Details: 50 µM

SMILES	growth inhibition call
COCC#Cc1cnc2c(c1)C(=O)N([C@H](C)CO)C[C@H](C)[C@@H](CN(C)S(=O)(=O)c1cccc(OC)c1)O2	inactive
C[C@@H]1CN([C@@H](C)CO)C(=O)c2cc(NC(=O)Nc3ccccc3)ccc2O[C@@H]1CN(C)C(=O)Nc1cccc2ccccc12	inactive
C[C@@H]1CN([C@H](C)CO)C(=O)Cc2cc(NC(=O)C3CCCCC3)ccc2O[C@H]1CN(C)Cc1ccc(Cl)c(Cl)c1	inactive
C[C@@H]1CN([C@H](C)CO)C(=O)c2cc(NS(=O)(=O)c3ccc(Cl)cc3)ccc2O[C@H]1CN(C)Cc1ccc(C(F)(F)F)cc1	inactive
C[C@H](CO)N1C[C@H](C)[C@@H](CN(C)S(=O)(=O)c2cccs2)Oc2ccc(NC(=O)Cn3cnnn3)cc2CC1=O	inactive
C[C@@H]1CN([C@@H](C)CO)S(=O)(=O)c2ccc(C#Cc3cccnc3)cc2O[C@@H]1CN(C)C(=O)Nc1ccc2c(c1)OCO2	inactive
C[C@H](CO)N1C[C@H](C)[C@H](CN(C)C(=O)CCC(F)(F)F)OCc2ccccc2-c2c(n(C)c3ccccc23)C1=O	inactive
C[C@H]1CN([C@@H](C)CO)S(=O)(=O)c2ccc(C#CC3CCCC3)cc2O[C@H]1CN(C)Cc1cncnc1	inactive
C[C@@H]1CN([C@@H](C)CO)C(=O)c2cc(C#CCc3ccccc3)cnc2O[C@H]1CN(C)CC1CCOCC1	inactive
C[C@@H]1CN([C@@H](C)CO)C(=O)c2cc(NC(=O)Nc3ccc4c(c3)OCO4)ccc2O[C@H]1CN(C)Cc1ccc(Oc2ccccc2)cc1	inactive
C[C@@H]1CCCCO[C@@H](CN(C)CC2CCCCC2)[C@H](C)CN([C@H](C)CO)C(=O)c2cc(NC(=O)Cc3ccccc3)ccc2O1	inactive
C[C@@H]1CN([C@@H](C)CO)C(=O)c2cc(NC(=O)NC3CCCCC3)ccc2O[C@H]1CN(C)Cc1ccc(Cl)c(Cl)c1	inactive
C[C@@H]1CCCCO[C@@H](CN(C)C(=O)c2ccccc2)[C@H](C)CN([C@H](C)CO)C(=O)c2cc(NC(=O)Nc3ccc(F)cc3)ccc2O1	inactive
NC(=O)C1CCOCC1	inactive
C[C@@H]1CN([C@@H](C)CO)C(=O)c2cc(NC(=O)Nc3ccccc3)ccc2O[C@@H](C)CCCCO[C@H]1CN(C)Cc1ccncc1	inactive
C[C@@H]1CN([C@@H](C)CO)S(=O)(=O)c2ccc(C#Cc3ccncc3)cc2O[C@H]1CN(C)C(=O)c1ccncc1	inactive
CC/C=C\C/C=C\C/C=C\C/C=C\C/C=C\C/C=C\CCC(=O)OCC	inactive
C[C@H]1CN([C@@H](C)CO)S(=O)(=O)c2ccc(C#Cc3cccnc3)cc2O[C@H]1CN(C)CC1CCOCC1	inactive
C[N+](C)(C)CCCCCCNC(=O)[C@@H]1C[C@@H]2C(=O)N[C@@H](CCCC[N+](C)(C)C)C(=O)N2[C@@H]1c1ccc(O)cc1	active

SMILES	growth inhibition call
CC(CCC(=O)NCC(=O)O)C1CCC2C3C(O)CC4CC(O)CCC4(C)C3CC(O)C12C (stereo unspecified)	inactive
C[C@@H]1CN([C@H](C)CO)C(=O)CCCn2nncc2CO[C@@H]1CN(C)C(=O)CCCN(C)C	inactive
C[C@H]1CN([C@@H](C)CO)C(=O)c2cccc(NC(=O)Nc3ccc4c(c3)OCO4)c2O[C@H]1CN(C)Cc1ccc(C(F)(F)F)cc1	inactive
CC(CCC(=O)O)C1CCC2C3C(O)CC4CC(O)CCC4(C)C3CC(O)C12C (stereo unspecified)	inactive
C=CCC[C@@H](Cc1ccc(F)cc1)C(=O)OC[C@@H](Cc1c[nH]c2ccccc12)NC(=O)[C@H](CC=C)CC(=O)N[C@@H](CO)Cc1ccccc1	inactive
COCC(=O)N(C)C[C@@H]1Oc2cc(C#C[C@@H](C)O)ccc2S(=O)(=O)N([C@H](C)CO)C[C@@H]1C	inactive
C[C@@H]1CN([C@H](C)CO)C(=O)c2cccc(NC(=O)C3CC3)c2O[C@@H]1CN(C)S(=O)(=O)c1ccc(F)cc1	inactive
C[C@H]1CCCCO[C@@H](CN(C)C(=O)Nc2ccc3c(c2)OCO3)[C@@H](C)CN([C@@H](C)CO)C(=O)c2cc(NC(=O)C3CCCCC3)ccc2O1	inactive
COc1ccc(S(=O)(=O)N(C)C[C@H]2Oc3c(cccc3N(C)C)C(=O)N([C@H](C)CO)C[C@@H]2C)cc1	inactive
COC(=O)/C=C/C(=O)O	inactive
C[C@@H]1CN([C@@H](C)CO)C(=O)c2cc(NC(=O)CCCCCC(=O)Nc3ccccc3N)ccc2O[C@@H](C)CCCCO[C@@H]1CN(C)CC1CCCCC1	inactive
C[C@H]1CN([C@@H](C)CO)C(=O)c2cccc(NC(=O)CCCCCC(=O)Nc3ccccc3N)c2O[C@H]1CN(C)CC1CCCCC1	inactive
C[C@@H]1CCCCO[C@H](CN(C)CC2CCCCC2)[C@H](C)CN([C@@H](C)CO)C(=O)c2cc(NC(=O)Cc3ccccc3)ccc2O1	inactive
C[C@@H]1CN([C@H](C)CO)C(=O)Cc2cc(NC(=O)Nc3ccc(C(F)(F)F)cc3)ccc2O[C@H]1CN(C)Cc1ccc(C(F)(F)F)cc1	inactive
Cl.N=C(N)n1cccn1	active
O=C(C[C@@H]1C[C@@H]2c3cc(NS(=O)(=O)c4ccc(F)cc4)ccc3O[C@@H]2[C@@H](CO)O1)NCc1ccc(Oc2ccccc2)cc1	inactive
O=C(C[C@@H]1CC[C@H]2[C@@H](COC[C@@H](O)CN2C(=O)Nc2ccc(Cl)cc2)O1)NC1Cc2ccccc2C1	inactive
O=C(C[C@H]1C=C[C@H](NC(=O)c2ccc3c(c2)OCO3)[C@H](CO)O1)NCc1ccc(Oc2ccccc2)cc1	inactive

— the antibiotic and cytotoxicity screens of Wong et al. (2023)
